# Results as given in paper PMC4336329 (PLoS ONE, 2015).
# About 2,200 (0.71%) of roughly 310,000 compounds showed an effect of 50% or more. Effects have a minus sign here. The list shows a part of the results.
# Biological target: human ether-à-go-go-related gene (hERG) potassium channel (human, UniProt Q12809)
# Test: primary screen, population patch clamp on CHO cells stably expressing hERG
# Chain of human ether-à-go-go-related gene (hERG) potassium channel (Q12809 whole entry, looked up): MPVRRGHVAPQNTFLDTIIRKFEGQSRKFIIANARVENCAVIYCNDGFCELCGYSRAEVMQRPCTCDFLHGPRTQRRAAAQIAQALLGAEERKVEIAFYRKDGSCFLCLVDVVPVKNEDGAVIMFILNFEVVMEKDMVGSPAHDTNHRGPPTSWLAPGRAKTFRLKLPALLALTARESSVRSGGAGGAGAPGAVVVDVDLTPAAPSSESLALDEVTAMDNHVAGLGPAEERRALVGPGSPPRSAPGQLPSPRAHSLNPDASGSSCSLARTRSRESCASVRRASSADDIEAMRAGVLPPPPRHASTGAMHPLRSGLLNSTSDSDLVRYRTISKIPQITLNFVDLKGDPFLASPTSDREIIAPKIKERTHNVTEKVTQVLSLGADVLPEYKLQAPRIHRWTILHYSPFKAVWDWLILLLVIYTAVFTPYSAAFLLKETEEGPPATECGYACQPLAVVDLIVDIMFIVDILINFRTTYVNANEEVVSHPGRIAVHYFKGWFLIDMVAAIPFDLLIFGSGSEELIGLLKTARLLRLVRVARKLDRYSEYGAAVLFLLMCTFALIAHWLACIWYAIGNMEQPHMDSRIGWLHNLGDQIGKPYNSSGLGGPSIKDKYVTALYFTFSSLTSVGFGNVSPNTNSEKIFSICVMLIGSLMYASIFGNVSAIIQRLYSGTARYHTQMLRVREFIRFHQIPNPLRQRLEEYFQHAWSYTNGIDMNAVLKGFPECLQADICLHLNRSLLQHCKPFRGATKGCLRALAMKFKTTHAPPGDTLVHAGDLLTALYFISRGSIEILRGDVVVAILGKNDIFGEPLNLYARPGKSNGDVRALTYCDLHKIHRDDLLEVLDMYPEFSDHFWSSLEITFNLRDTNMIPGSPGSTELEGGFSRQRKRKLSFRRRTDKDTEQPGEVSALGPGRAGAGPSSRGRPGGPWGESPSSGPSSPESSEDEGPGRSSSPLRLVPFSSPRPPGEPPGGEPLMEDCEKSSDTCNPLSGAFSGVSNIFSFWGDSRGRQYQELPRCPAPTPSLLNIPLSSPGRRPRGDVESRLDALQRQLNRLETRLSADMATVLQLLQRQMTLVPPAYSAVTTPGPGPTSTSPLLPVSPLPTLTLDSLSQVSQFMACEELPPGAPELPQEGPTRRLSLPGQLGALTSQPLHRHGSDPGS
row,SMILES,"hERG current change (%, negative = inhibition) at 1uM"
1,CCN1CCN(C(CNS(=O)(=O)c2ccc(OC)c(C)c2)c2cccnc2)CC1 (stereo not drawn),-27.5%
2,COc1cccc(N(C(=O)CNC(=O)c2ccco2)C(C(=O)NC2CCCC2)c2ccco2)c1 (stereo not drawn),-1.85%
3,COc1ccc2oc(C(=O)OC(C)C(=O)NC3(C#N)CCCCC3)c(C)c2c1 (stereo not drawn),-4.03%
4,CCCCOC(=O)c1cc(=O)[nH]c2ccc(C)cc12,11.1%
5,CCOC(=O)N1CCC(NC(=O)Cn2nc(-c3ccccc3)ccc2=O)CC1,6.2%
6,COc1ccc([C@H]2CC(=O)C=C(c3cccc4c3Oc3ccccc3S4)C2)cc1,-6.78%
7,COC(=O)c1ccc(COn2nnc3ccccc32)cc1,9.88%
8,O=C(Nc1cccc(S(=O)(=O)N2CCCCC2)c1)c1ccc(S(=O)(=O)C(F)F)cc1,10.8%
9,Cc1ccc2c(c1)N(CCC(=O)NCC1CCCO1)C(=O)CO2 (stereo not drawn),-3.9%
10,CS(=O)(=O)c1ccc(Cl)c(NC(=O)COC(=O)CNC(=O)c2sc3ccccc3c2Cl)c1,7.41%
11,CCn1c(COc2ccc(C)cc2)nnc1SCC(=O)Nc1ccc2c(c1)OCCO2,13%
12,COc1ccc(NC(=O)CN(C)C(=O)CNC(=O)Cc2cccc3ccccc23)cc1,11%
13,COC(=O)C1=C(c2cccc(OCc3ccccc3)c2)C[C@@H]2CC[C@H]1N2C(=O)NCc1cccc(F)c1,14.4%
14,COc1ccccc1OC(=O)CCN1c2ccccc2Sc2ccccc21,7.3%
15,O=C(Nc1ccc(F)cc1F)c1cc(-c2ccco2)on1,5.34%
16,Cn1c(CN2CCOCC2)nnc1SCC(=O)Nc1ccc([N+](=O)[O-])cc1O,10.5%
17,CN(C)S(=O)(=O)c1cccc(C(=O)Nc2n[nH]c(C(F)(F)F)n2)c1,12.7%
18,O=C(CS(=O)(=O)Cc1ccccc1)NCc1ccccc1Cl,8.36%
19,COc1ccc(CNc2nc(SC)n[nH]2)cc1OC,15.4%
20,CN(C)c1nnnn1Cc1ccc(Cl)cc1Cl,9.13%
21,CCOc1ccccc1/C=C/c1onc(C)c1S(=O)(=O)N1CCC(C(=O)NC(C)C)CC1,11%
22,Cc1ccc(C(=O)N2CCOCC2)cc1S(=O)(=O)N1CCOCC1,17.9%
23,O=C(NNS(=O)(=O)c1ccc(Br)cc1)NC1CCCCC1,5.72%

row,SMILES,"hERG current change (%, negative = inhibition) at 1uM"
1,COc1ccccc1CNC(=O)CSc1ccc(C)cc1,-8.53%
2,CN(C)/C=C1\N=C(c2cccnc2Oc2ccc(Cl)cc2)OC1=O,12.2%
3,COc1ccccc1C(NC(=O)C1CCCCC1)c1c(O)ccc2ccccc12 (stereo not drawn),1.87%
4,CC1Sc2ccc(S(=O)(=O)CCC(=O)N3CCCCC3)cc2NC1=O (stereo not drawn),11.6%
5,N#Cc1c(-c2ccco2)nc(SCC(=O)Nc2cccc(Cl)c2)[nH]c1=O,2.19%
6,CCOc1ccccc1N1CCN(c2nc(N)c(C#N)c(CC#N)c2C#N)CC1,0.82%
7,COc1ccc(C2=C(CC(=O)O)C(=O)CC2)cc1,14.7%
8,Cc1cc(C(=O)NNS(=O)(=O)c2cc(C(=O)O)ccc2Cl)c(C)n1-c1ccccc1,6.4%
9,CCCc1noc2c1/C(=N\O)CC(c1ccccc1)C2 (stereo not drawn),2.29%
10,COC(=O)C(C(=O)Nc1cccc(C)n1)C1CCCCCC1 (stereo not drawn),15.9%
11,O=C(Cc1ccc(-c2ccccc2)cc1)OCC(=O)N1CCCC1=O,25.5%
12,COC(=O)c1cc2c(cc1N)OCCO2,21.5%
13,COCCNC(=O)CSc1cc(-c2ccccc2)c2ccc(OC)cc2n1,-2.15%
14,CC(=O)NNc1ncnc2c1cnn2-c1ccccc1,1.51%
15,COc1ccc(C2C=C(C34CC5CC(CC(C5)C3)C4)NC(=S)N2)cc1 (stereo not drawn),1.47%
16,O=C(OCC(=O)N1CCCCCC1)c1n[nH]c(=O)c2ccccc12,8.67%
17,C=CCN1C(=O)/C(=C\c2ccc(C)cc2)N=C1SCC(=O)NCCC,7.03%
18,COc1ccc(-c2noc(CN(C(=O)c3ccc4c(c3)OCO4)C(C)C)n2)cc1,12%
19,CCN1C(=O)/C(=C/c2ccc3c(c2)CCN3CCCCl)C(=O)NC1=S,9.33%
20,CCOC(=O)c1ccc(NC(=O)N2CCN(c3cccc(OC)c3)CC2)cc1,-7.21%
21,Clc1ccc(-n2ncc3c(N4CCCCCC4)ncnc32)cc1,18.7%
22,CC12CN3CC(C)(CN(C1)C3c1ccc3ccccc3c1O)C2=O (stereo not drawn),9.61%
